# ± gives the standard deviation of the averaged measurements. Whole data set: some 33,000 sequences, median “E-score (dimensionless, -0.5 to 0.5)” near -0.049, cut for the highest 2% near 0.37. Some of the results follow.
# System: T1, PmTbr T-box DNA-binding domain (GST fusion)
# T1 sequence: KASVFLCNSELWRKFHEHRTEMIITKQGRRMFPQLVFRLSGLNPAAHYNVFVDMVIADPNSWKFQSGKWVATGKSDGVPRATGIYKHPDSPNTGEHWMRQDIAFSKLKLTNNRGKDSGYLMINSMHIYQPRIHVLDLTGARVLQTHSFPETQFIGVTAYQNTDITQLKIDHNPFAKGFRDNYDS
# Experiment: PBM E-score of 8-mer (E-score (dimensionless, -0.5 to 0.5)); Tbr is Tbrain of the sea star Patiria miniata (Pm) or the sea urchin Strongylocentrotus purpuratus (Sp); higher = stronger binding preference; most listed sequences are background and not binding sites
# Details: the construct has about 5 more residues each side
# Protocol: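 Universal protein-binding microarray (Agilent AMADID 016060, 60-bp probes with a 35-bp variable region) incubated with 200 nM GST-fused Patiria miniata Tbr T-box DNA-binding domain (residues 272-466) in PBS pH 7.5. Scored for every ungapped 8-mer (given with its reverse complement) by the Universal PBM Analysis Suite as E-score (modified Wilcoxon-Mann-Whitney enrichment, range -0.5 to 0.5; >0.45 counts as bound) and Z-score of median probe intensity. Two replicate arrays (datasets 1 and 2).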
# 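Further: 200 nM protein in PBS on universal arrays averaged over duplicate arrays.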
row,Sequence,PBM E-score of 8-mer
1,CCCTTTTC,-0.0658 ± 0.04
2,AGAATCCC,-0.159 ± 0.059
3,CTCGGGGC,-0.133 ± 0.042
4,ATTGCTCC,-0.0474 ± 0.052
5,CACAACAC,0.387 ± 0.02
6,CAGTCCGG,-0.307 ± 0.0042
7,CATAGGCG,0.173 ± 0.015
8,TACACCTA,0.371 ± 0.026
9,GTATAGCA,0.0288 ± 0.024
10,CCTTCCAA,-0.197 ± 0.062
11,GGGCAAAA,-0.0896 ± 0.025
12,ACGGGCAT,-0.225 ± 0.076
13,GCAGGGAC,-0.209 ± 0.0062
14,GAACGCTA,0.0135 ± 0.049
15,GCTAGAGC,-0.058 ± 0.098
16,CCGGTGCC,-0.127 ± 0.01
17,AACCCGGA,-0.17 ± 0.016
18,ATGCCATC,-0.169 ± 0.017
19,ACCTAGCC,0.00247 ± 0.015
20,AGGCTGTG,0.0477 ± 0.095
21,GTTCAGTA,-0.187 ± 0.053
22,ACGCGGTA,0.199 ± 0.0081
23,GCATATAC,-0.081 ± 0.0014
24,AACAGACC,-0.0784 ± 0.076
25,CAACTCTG,0.16 ± 0.08

row,Sequence,PBM E-score of 8-mer
1,CTCGGATC,-0.166 ± 0.023
2,CGTTATCC,-0.058 ± 0.009
3,CCTGACCG,-0.0873 ± 0.02
4,AAAGATTT,-0.0448 ± 0.019
5,CATTCGCC,-0.0177 ± 0.044
6,CCCAAAAA,-0.143 ± 0.014
7,TAATCGTA,-0.114 ± 0.092
8,AGAGGATC,-0.395 ± 0.011
9,TCCTGAGA,-0.138 ± 0.031
10,AAGTAATA,-0.192 ± 0.063
11,ACCTAATG,0.0898 ± 0.0038
12,CCGCCTAC,-0.126 ± 0.028
13,GCACACAC,0.219 ± 0.039
14,GTCCACAA,0.03973 ± 0.00023
15,CCAAGAAC,-0.112 ± 0.002
16,AGTTCAAT,0.00694 ± 0.04
17,TTAGCTAA,0.0454 ± 0.0036
18,ACTACAAA,-0.0762 ± 0.1
19,ATTGCGTG,0.0323 ± 0.0015
20,ACGATCCG,-0.0368 ± 0.073
21,ACCACAAG,0.0391 ± 0.13
22,CGGTCCGC,0.014 ± 0.065
23,ATGTCGAG,0.0375 ± 0.013
24,GGTCGAGA,-0.252 ± 0.058
25,CACCTACA,0.407 ± 0.013

row,Sequence,PBM E-score of 8-mer
1,ATTAGATC,-0.277 ± 0.047
2,GCAAGCTA,-0.088 ± 0.0098
3,AACTGACT,-0.179 ± 0.03
4,GCGTACAC,-0.0608 ± 0.033
5,ATCGGATG,-0.0868 ± 0.012
6,CTTGCAGC,0.0487 ± 0.012
7,AACGTAAG,-0.0227 ± 0.11
8,GATTCTGA,-0.148 ± 0.03
9,ATCTTTAC,-0.189 ± 0.0031
10,CAATACTG,-0.151 ± 0.016
11,ACTCTACT,0.0128 ± 0.024
12,ACGACGAA,0.0979 ± 0.0076
13,AGAGAAGA,-0.186 ± 0.04
14,CCCCCAGA,-0.116 ± 0.043
15,TTGAAAAA,-0.0733 ± 0.07
16,AAAGTCTT,-0.174 ± 0.002
17,AACTTATG,-0.216 ± 0.013
18,CGTAATTC,-0.193 ± 0.014
19,ATTGCGTC,-0.231 ± 0.099
20,CACCCAAC,0.255 ± 0.025
21,ACTTGCAG,0.211 ± 0.0046
22,CTTAACCC,-0.0938 ± 0.018
23,ATAAGCTA,-0.0827 ± 0.085
24,CGCCAGTC,0.0298 ± 0.11
25,ACCTACTC,-0.0258 ± 0.091

row,Sequence,PBM E-score of 8-mer
1,AGCCGGCC,-0.157 ± 0.0064
2,AAGCTTGA,-0.0925 ± 0.025
3,AAGTCAGA,-0.144 ± 0.0029
4,CACGGTCA,-0.128 ± 0.15
5,AGTATGTC,0.0609 ± 0.02
6,GCCCAAAC,-0.326 ± 0.053
7,GAAATATC,0.116 ± 0.062
8,AAAGAGAA,-0.164 ± 0.0075
9,CCCTTTCC,-0.23 ± 0.041
10,ACCAACAA,-0.0452 ± 0.0025
11,AGGTAACT,-0.202 ± 0.042
12,CCTCAAGA,-0.0898 ± 0.013
13,ATGGCCAG,-0.288 ± 0.012
14,AGCGAAAA,0.0819 ± 0.093
15,TCAACGAA,-0.102 ± 0.044
16,ACTTTCCC,0.00552 ± 0.00085
17,CTTGTTTA,-0.0366 ± 0.073
18,AACGCGGT,0.0374 ± 0.08
19,CAATCTTA,0.00699 ± 0.1
20,GTATGCCA,-0.0108 ± 0.032
21,CCGTGATC,0.0258 ± 0.017
22,ACCTTGCA,0.0593 ± 0.027
23,ACCAGCGG,0.106 ± 0.042
24,CAGTCTCG,-0.0851 ± 0.016
25,ATACAGGG,-0.305 ± 0.028

row,Sequence,PBM E-score of 8-mer
1,CTCTACTA,0.0689 ± 0.027
2,ATACGCGA,0.0724 ± 0.001
3,AATACGAT,-0.0916 ± 0.037
4,CCGATGCA,-0.171 ± 0.039
5,GTTGGCGA,0.248 ± 0.026
6,CCGGATCA,0.0169 ± 0.078
7,CCTGTGCC,-0.0204 ± 0.033
8,GATAGCGA,0.0854 ± 0.036
9,ATACCGCA,0.0124 ± 0.0047
10,CTGGTCCA,-0.23 ± 0.039
11,CCAGCTAG,-0.145 ± 0.052
12,AGAAGAAG,-0.307 ± 0.05
13,CTCAGGCA,-0.161 ± 0.016
14,ATACAGAG,-0.0843 ± 0.021
15,GCCGCAAC,-0.0496 ± 0.04
16,ATCAACGC,0.159 ± 0.049
17,GGTGCCCA,-0.139 ± 0.069
18,AGTACGTG,0.168 ± 0.028
19,AAAATCCC,-0.174 ± 0.051
20,GCTGACAA,0.2795 ± 0.00061
21,CTTGCAAC,0.163 ± 0.024
22,AAGCCTGA,-0.0788 ± 0.067
23,GTACTAGA,-0.104 ± 0.038
24,ACTTACAG,0.157 ± 0.035
25,CGCGGTCA,-0.0665 ± 0.042

row,Sequence,PBM E-score of 8-mer
1,ACATCGGG,-0.0207 ± 0.058
2,GAACCTAC,-0.179 ± 0.00047
3,ACTTAGTA,-0.0358 ± 0.067
4,ACTCCGTC,-0.101 ± 0.032
5,GCCCGAAC,-0.26 ± 0.057
6,CTCTCGGC,0.0669 ± 0.054
7,AAGTGGGA,0.223 ± 0.0075
8,AGCTAGCC,-0.147 ± 0.0053
9,CCTCAACC,-0.15 ± 0.039
10,GGAAGGAA,-0.287 ± 0.02
11,AGTCCCTC,-0.059 ± 0.06
12,AAGGTATG,0.0327 ± 0.0067
13,ATTCGAGA,-0.0312 ± 0.0064
14,ACTTGTGA,0.411 ± 0.0095
15,ACCCACCC,0.132 ± 0.053
16,GGTAGTAC,-0.34 ± 0.034
17,CTCCCGCA,-0.203 ± 0.091
18,GACATCAA,-0.131 ± 0.0056
19,AACACAAG,0.096 ± 0.016
20,AGAAAGCA,0.0161 ± 0.03
21,TGAAAACA,0.123 ± 0.074
22,ATCTATAC,-0.169 ± 0.026
23,CCACTCCC,-0.0399 ± 0.027
24,CGGCTTGC,-0.0848 ± 0.039
25,AACACAGC,0.0601 ± 0.048

row,Sequence,PBM E-score of 8-mer
1,GGTTGGGA,-0.312 ± 0.02
2,CAGGCGGC,-0.00931 ± 0.083
3,CATATCGA,-0.161 ± 0.01
4,CTCAACAC,0.321 ± 0.029
5,ACACTTAT,0.387 ± 0.0076
6,ACCGTACT,-0.134 ± 0.067
7,AATCCTCT,-0.1114 ± 0.00041
8,CACTTCAG,0.255 ± 0.025
9,ACCGTTGA,-0.184 ± 0.0077
10,CTGACCCC,-0.231 ± 0.035
11,CACTACGC,0.157 ± 0.0054
12,ATCCAGGA,-0.107 ± 0.011
13,GAGCAAAA,-0.0487 ± 0.12
14,CAACTGCG,0.0774 ± 0.046
15,CTCCCTCC,0.0764 ± 0.04
16,TGACTACA,-0.17 ± 0.012
17,AACCATAC,-0.179 ± 0.016
18,ACATTCGG,-0.221 ± 0.051
19,GAACAGCC,0.046 ± 0.004
20,CAGGTAGG,0.0824 ± 0.00085
21,CACTTGGA,0.234 ± 0.018
22,AGAGTCAC,-0.00213 ± 0.085
23,ACTAGTAA,-0.0993 ± 0.032
24,AGGCCCTA,-0.271 ± 0.083
25,AGATACTA,-0.187 ± 0.036

row,Sequence,PBM E-score of 8-mer
1,GACTGAAA,0.0901 ± 0.099
2,AGCCATCA,-0.169 ± 0.038
3,CGAAAACC,-0.203 ± 0.072
4,AATATTAT,-0.12 ± 0.075
5,CGTTAACC,0.0384 ± 0.0052
6,TCTAGGAA,-0.236 ± 0.084
7,GAGAAAGA,-0.0831 ± 0.13
8,GGTTGGCA,0.184 ± 0.01
9,CTAAGTCA,0.0515 ± 0.068
10,CATTCGTC,-0.0104 ± 0.058
11,AATTCGCC,0.115 ± 0.027
12,ATAGCTGC,0.00428 ± 0.015
13,GCGGGCAA,-0.186 ± 0.051
14,CCCAACTA,-0.12 ± 0.01
15,CCCGAGAG,-0.113 ± 0.021
16,CTACGTGA,0.0284 ± 0.073
17,ACTACGTA,-0.156 ± 0.012
18,ACACCATA,0.284 ± 0.033
19,CCCATCTA,-0.177 ± 0.038
20,ATGATCCA,-0.0567 ± 0.047
21,GCGTTTGA,-0.115 ± 0.061
22,AATATTGT,0.123 ± 0.094
23,AGCATATC,0.0194 ± 0.02
24,TAACCATA,-0.145 ± 0.046
25,AATCTAAC,-0.0186 ± 0.011

row,Sequence,PBM E-score of 8-mer
1,CTGCCATA,0.0983 ± 0.012
2,AGCGCTAC,0.152 ± 0.012
3,AAAGAGGG,-0.00301 ± 0.049
4,GTAGATGA,-0.132 ± 0.011
5,TGGATCCA,-0.12 ± 0.022
6,GGCGAAAC,0.0341 ± 0.0066
7,AATCTTAG,-0.0317 ± 0.098
8,AGTGTTAT,0.397 ± 0.016
9,GATCCCAC,0.0899 ± 0.054
10,ATTTGCGC,0.132 ± 0.035
11,AGTTTAAT,-0.0349 ± 0.05
12,AATCTAAG,-0.214 ± 0.028
13,TCTTGGCA,0.0497 ± 0.1
14,AAACCGCT,-0.0513 ± 0.0093
15,CCTGAGCC,-0.117 ± 0.016
16,ACATGGTC,-0.161 ± 0.036
17,CCAACATC,-0.0505 ± 0.093
18,ACACGTCT,0.355 ± 0.021
19,AAACGAGC,-0.229 ± 0.005

# Source: the supplement of paper PMC4166925
